# Measured values from PMC12136788.
# The list shows a part of the results.
# T1: UNK ZnF1-3 (human, UniProt Q9C0B0 31-174)
# T1 sequence: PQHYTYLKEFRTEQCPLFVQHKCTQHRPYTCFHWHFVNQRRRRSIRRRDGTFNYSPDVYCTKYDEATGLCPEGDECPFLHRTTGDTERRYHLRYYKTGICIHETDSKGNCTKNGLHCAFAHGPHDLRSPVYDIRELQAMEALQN
# B1: chr7:56126341:56126342:+_ENSG00000146731_ENST00000540286|hu_mus|hu_hu_hu_mus_True|88_88 (ssRNA)
# RNA: GGGAGUUCUACAGUCCGACGAUCCAUGUUUCUCCUCUUGGCUCUGCGCAGAGCAACGAUCCCUUCUUUCGCAAGGGCAUCUAAGGAAAAGGGGUCAAUCCCCUUUUGAUUAAUAACGACAAAUCCUUUAUCUGAGUCACCACACAACAGAGGAUUGAGCAUCA
# B2: 71365727_71368379_1618_CDS_ENSG00000124383_ENST00000244230|human|control|control (ssRNA)
# RNA: GGGAGUUCUACAGUCCGACGAUCUACUACAUCAUCCCAAGCCUGAUCUCUUAUCCUCUGUUUAAUGAUAUCUUCCAGUUGAAGGGUGGUUUCCUCUGUAAUCACAGGUGCCAUCCGGACAGCAUGGUCAAAGUGUAGGGUCUCCAACAGAGGAUUGAGCAUCA
# B3: chr3:139075817:139075818:+_ENSG00000175110_ENST00000310776|hu_hu|FALSE|FALSE (ssRNA)
# RNA: GGGAGUUCUACAGUCCGACGAUCUUAGGAAGCUGCAGAAUGGCGACUGAGUGCUUCUUGAUAAGUCUGCAGUGUUAGUUCUAUAUAGGCUCCCUUCUGUGCUUCUGUUUUUGCAAAGACCUUGAUUAAAUUUAUUCCCUCAGCCAACAGAGGAUUGAGCAUCA
# B4: chr13:40293908:40293909:+_ENSG00000133103_ENST00000455146|hu_hu|motif|central (ssRNA)
# RNA: GGGAGUUCUACAGUCCGACGAUCUGCUUCGAUCUGAAACUGUAGCAUUUCCAGACGUCUGUCAGUGAAUUCAAAUAGAGCGGAUGUUGUCUUCAUCAUAUAUAGUGAAUUGACCAUGAAAGUGGCCAUGUCAGCUGUGCCUAACAACAGAGGAUUGAGCAUCA
# B5: chr7:90019433:90019434:+_ENSMUSG00000057706_ENSMUST00000082237|mus_hu|mus_mus_mus_hu_True|88_108 (ssRNA)
# RNA: GGGAGUUCUACAGUCCGACGAUCAAAAAUACAGUGUUUCUUUGCCAAAGGCCAUACCUAAAAUAAAAAGAUUUAACCCAGCUACAAAAAAGUUCACUGAACUUAAAUUAAAAUACUUGUAAACAUCUUUGCAAUAUGAAAUAUCAACAGAGGAUUGAGCAUCA
# B6: chr16:37883567:37883568:+_ENSMUSG00000034158_ENSMUST00000078717|mus_mus|motif|central (ssRNA)
# RNA: GGGAGUUCUACAGUCCGACGAUCUCGAUCCACACAGAGUACUUGCGCUCAGGAGGAGCAAUGAUCUUGAUCUUCAUGGUGCGGGGAGCCAGAGCAGUAAUCUCCUUCUGCAUCCUGUCAGCAAUGCCUGGGUACAUGGUGGUACAACAGAGGAUUGAGCAUCA
# Target: T1, UNK ZnF1-3
# Assay: nsRBNS (natural sequence RNA bind-n-seq); RBNS binding buffer (assumed for nsRBNS): 25 mM Tris pH 7.5, 150 mM KCl, 3 mM MgCl2, 0.01% Triton X-100, 500 ug/ml BSA, 20 U/ml SUPERase-In, 4 C; UNK is unkempt and MSI1 is Musashi-1; names of the RNAs are library labels; protein concentration not given here; high values mean tight binding
row,Binder,binding signal [enrichment R]
1,B1,1.06
2,B2,0.629
3,B3,0.865
4,B4,0.981
5,B5,1.75
6,B6,1.17
